Source: PubChem BioAssay (NCI)
Where “and” joins values, the source holds several entries; their conditions need not be identical. Equal entries are not always repeated.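 Interpolation was linear, between the two tested concentrations surrounding the appropriate level; five concentrations were tested over 48 hours in 96-well plates. GI50: concentration for 50% inhibition of growth. TGI is the concentration that stops growth completely.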

tested on: NCI-H322M lung; assay: NCI anticancer screen, dose series, 48 h

SMILES	TGI	GI50 [µM]
O=C1c2ccccc2C2(c3ccc(Cl)cc3)N[C@H]3CCCC[C@@H]3N12 (stereo partly specified)	> 100 µM	
CSc1cnc2ccccc2c1SC1CN(Cc2ccccc2)c2ccccc2C1=O (stereo unspecified)	> 100 µM	
O=C1CSC(/C(=N/Nc2ccccc2)c2nc3ccccc3[nH]2)=N1	> 100 µM	
Cc1nc2sc3ccccc3n2c(=O)c1N=Nc1ccc(Cl)cc1	> 100 µM	
COc1cccc2c(=O)c3c(sc12)c(N1CCNCC1)nc1ccccc13	3.03 µM	1.65
N#CC1CC2(C1)OCCS2 (stereo unspecified)	> 100 µM	
Cn1c2ccccc2c(=O)c2ccc(Cl)cc21	> 10 µM	
O=C1[C@@H]2C(c3ccccc3F)=NO[C@@H]2C(=O)N1c1ccc(Cc2ccc(N3C(=O)[C@H]4C(c5ccccc5F)=NO[C@H]4C3=O)cc2)cc1	> 100 µM	
CN(C)CCOC1(Cc2ccc(F)cc2)CCC(C(C)(C)C)CC1 (stereo unspecified)	17.1 µM and 23.2 µM	
O=[N+]([O-])/C(C(Cl)=C(Cl)Cl)=C(\N1CCCCC1)n1cncn1	33.8 µM	
C=CCOc1ccc(C2C(C(=O)OCC)C(=O)CC(C)(O)C2C(=O)OCC)cc1OC (stereo unspecified)	> 100 µM	
[N-]=[N+]=NC1=C(c2ccccn2)C(=O)c2cccc3cccc1c23	> 100 µM	
CCCCON(OC(=O)c1ccc2ccc3cccc4ccc1c2c34)C(C)=O	> 100 µM	49.1
O=c1cccc(C#CC#CC2=CCCCC2)o1	33.4 µM	17.8
C=C(Cl)C(C)(Cl)CCC(Br)C(C)(C)Cl (stereo unspecified)	> 100 µM	
CC(C(O)Cc1ccccc1)N(C)N=Nc1ccc([N+](=O)[O-])cc1 (stereo unspecified)	81 µM	
Cc1ccc(S(=O)(=O)NC(=O)N[C@@H](Cc2cnc[nH]2)C(=O)O)cc1	> 100 µM	
c1ccc(C2Nc3ccccc3C3OCCCC23)cc1 (stereo unspecified)	> 100 µM	
NC(=O)NCc1c(C(N)=O)ncn1Cc1ccccc1	> 100 µM	
Cn1c2ccccc2c(=O)c2cccc(C(=O)NC(CCCN=C(N)N)C(=O)O)c21 (stereo unspecified)	> 100 µM	
O=C1/C(=C/c2cccc([N+](=O)[O-])c2)COc2ccc(Br)cc21	> 100 µM	
O=C(N/N=C/c1cc(Br)cc(Br)c1[O-])c1ccccc1O.O=C(N/N=C/c1cc(Br)cc(Br)c1[O-])c1ccccc1O.[Cu+2]	1.77 µM	
Cn1c(COC(=O)Nc2ccccc2)c(COC(=O)Nc2ccccc2)c2ccc3cc(Cl)c(Cl)cc3c21	26.1 µM	

SMILES	TGI	GI50 [µM]
CCSc1nc(SCC)c2cn[nH]c2n1	> 100 µM	> 100
COc1ccc2nc(NC(=O)C(=O)C(C#N)c3ccc([N+](=O)[O-])cc3)sc2c1 (stereo unspecified)	> 100 µM	
Cn1c(=O)c(Cc2ccccc2F)cc2cnc(NC3CCOCC3)nc21	> 25 µM	> 25
ClCc1cccc(Cn2cnc3nc(Cl)nc(Cl)c32)c1	27 µM	14.1
O=C1CC2CCCC23CC2(CCN13)OCCO2 (stereo unspecified)	> 100 µM	
C=C1CCC(CC[C@@H]2CC[C@]3(OC2)O[C@@]2(O)CC[C@]3(C)OC2(C)C)C(C)(C)[C@H]1C/C=C1/C(=O)OC[C@@H]1O (stereo partly specified)	17.2 µM	
CCCCCCCCCCCCCCCCCCOc1ccccc1CC(=O)OCC[N+]1(C)CCCC1	22.1 µM	8.22
COc1ccc(/C=C/C(=O)C(CC2CCC2)C(=O)/C=C/c2ccc(OC)c(OC)c2)cc1OC	7.55 µM	2.55
S=C1OC2CCCC[C@H]2O1 (stereo partly specified)	> 100 µM	
CC(C)(C)C(=O)CC1=Nc2ccccc2SC1(O)CC(=O)C(C)(C)C (stereo unspecified)	> 100 µM	
COC(=O)C1=C(C)NC(C)=C(C(=O)OC)C1c1nc2sccn2c1[N+](=O)[O-]	> 100 µM	
Cc1c(C(=O)/C=C/c2ccccc2)[n+](=O)c2ccccc2n1[O-]	32.8 µM	
Cc1cc(S(=O)(=O)Nc2nc3cc(-c4ccc(Cl)cc4)sc3c(=O)n2N)c(S)cc1Cl	> 100 µM	
COc1nc2nccnc2c(=O)n1C	> 10 µM	
C=CC[C@]12C=C(OC)[C@@H](O)[C@](OC)(C(c3cc(OC)c4c(c3)OCO4)[C@H]1C)[C@H]2OC(C)=O (stereo partly specified)	> 100 µM	
CCOC(=O)NC(Nc1cccc(C(F)(F)F)c1)(C(F)(F)F)C(F)(F)F	> 100 µM	
COc1ccc(/C=C2\N=C(SC)NC2=O)cc1	> 100 µM	
CN(CCC#N)c1ccc(/C=C(\C#N)c2ccc(Br)cc2)cc1	> 100 µM	> 100
COc1cccc(C#Cc2ccccc2C#CCCCCO)c1	26 µM	12.3
COc1ccc2c(c1)CCN1CCc3ccccc3CC21 (stereo unspecified)	> 100 µM	
CCN(CC)c1ccc(N=Nc2ccc(-c3nc4ccc[n+](C)c4s3)cc2)cc1	26.7 µM	
CCCCCCCCCCCC(=O)OCC1OC(OC)C(NC(=O)N(CCCl)N=O)C(O)C1O (stereo unspecified)	26.9 µM	
CCn1c(-c2ccc(OC(C)=O)cc2)c(C)c2cc(OC(C)=O)ccc21	> 100 µM	
